Experimental data published in ChEMBL document CHEMBL1157539, “Thousands of chemical starting points for antimalarial lead identification” (Nature, 2010).
In all, about 13,000 compounds were measured (“IFI”: median about 4, highest 2% from about 17 on). This is one part of the list.

Test: GSK_TCMDC: Inhibition Frequency Index (IFI). The number of non-kinase HTS assays where a compound showed > 50 % inhibition, expressed as a percentage of the number of such assays in which the compound was tested (-0 is zero)
Type: functional

SMILES | IFI [%]
Cc1ccc2c(=NN=Cc3cccc(F)c3)cc(C)[nH]c2c1 | 5.15
N#Cc1ccc(-c2ccc(C(=O)NCCCCN3CCC(n4cnc5ccccc54)CC3)cc2)cc1 | 2.7
COc1ccc(-c2ccc(NC(=O)c3cccc(C#N)c3)cc2)cc1CN1CCCC(C(N)=O)C1 (configuration not stated) | 1.98
CC(C)c1ccc(CN2CCC(NC(=O)c3ccc(-c4cccc(F)c4)s3)CC2)cc1 | 17.2
CC(Cc1ccc(CNC(=O)NCc2ccc(CC(C)NCCc3cccc(Cl)c3)cc2)cc1)NCCc1cccc(Cl)c1 (configuration not stated) | 12.9
C=C[C@]1(C)C[C@@H](OC(=O)CSC2CN3CCC2C3)[C@@]2(C)C3C(=O)CC[C@@]3(CC[C@H]2C)[C@@H](C)[C@@H]1O (some centres not stated) | 2.04
Cc1ccc(Nc2ccnc(Nc3ccc4c(c3)CS(=O)(=O)C4)n2)cc1O | 8.84
CN(C)c1nc2cc(-n3cnc4cc(-c5ccc(Cl)cc5)sc4c3=O)ccc2n1CCCN1CCCC1 | 8.4
COc1ccc(C2C(C(=O)OC3CCCC3)=C(C)NC3=C2C(=O)CCC3)cc1Br (configuration not stated) | 2.96
N=C(N)Nc1nc(-c2cccc(NC(=O)Cc3ccccc3)c2)cs1 | -0
O=C(Cc1c[nH]cn1)Nc1ccc(-c2ccc(-c3nc4ccccc4[nH]3)s2)cc1 | 2.8
CCc1ccc(NC(=O)c2cccc(CN3CCCN(Cc4ccc(OC)cc4)CC3)c2)cc1 | 8.51
CS(=O)(=O)CCNCc1nc(-c2ccc3c(=O)[nH]cnc3c2)cs1 | 22.6
Cc1cc(NCCc2ccc(O)cc2)nc(NCC(c2ccccc2)c2ccccc2)n1 | 15
CCN1CCN(c2cc(C)c3cc(NC(=O)c4cccc([N+](=O)[O-])c4)ccc3n2)CC1 | 2.7
CC(Cc1ccc(OCC(=O)NCC2CCN(CCc3cccc(Cl)c3)CC2)cc1)NCCc1cccc(Cl)c1 (configuration not stated) | 9.49
CN(C)c1ccc(CN2CCCCC(NC(=O)c3cc(-c4ccccc4F)cs3)C2)cc1 (configuration not stated) | 3.64
O=C(Nc1ccc(Cn2ncc(N3CCCNCC3)c(Cl)c2=O)cc1)Nc1cccc(Oc2ccccc2)c1 | 7.46
Cc1ncccc1C(=O)Nc1cccc(-c2cccc(-c3nc4cccc(C)c4[nH]3)c2)c1 | 1.9
CCOc1cc(Cl)c(C(C)NC(=O)c2ccccc2)cc1OCC (configuration not stated) | -0
CN1CCCN(c2ccnc3cc4c(cc23)N(C(=O)c2ccccc2Cl)CC4)CC1 | -0
Cc1[nH]c(C)c(-c2ccc(-c3ccccc3F)nc2)c(=O)c1Cl | -0
COC(=O)CCCCOc1c(OC)cc(Cc2cnc(N)nc2N)cc1OC | 2.05

SMILES | IFI [%]
CCCC(=O)c1cnc2c(OCCCc3c[nH]cn3)cccc2c1Nc1c(C)cccc1C | 13.4
CNC(=O)c1cnc(Nc2ccc(N3CCN(C)CC3)c(C)c2)nc1NC | 0
CC1(C)N=C(N)N=C(N)N1c1ccccc1 | 1.46
COc1ccccc1CCNc1nc(C)cc(N[C@@H](Cc2ccccc2)C(=O)NCCCOC(C)C)n1 | -0
Cc1cccc2nc(-c3ccc(-c4ccc(CNCCc5ccncc5)cc4)cc3)[nH]c12 | 10
O=C(/C=C/c1ccc(Cl)c(Cl)c1)NCCCCCCN1CCCN(C(=O)Nc2cccc(Cl)c2)CC1 | 7.44
O=C1CCCN1CCCNCc1cccc(-c2cccc(-c3nc4cc(F)ccc4[nH]3)c2)c1 | 4.85
FC(F)(F)c1cccc(CNCC2CCN(CC3CCCCC3)CC2)c1 | 1.38
CN(C)CCCn1c(N)c(-c2nc3ccccc3[nH]2)c2nc(C#N)c(C#N)nc21 | 5.17
Cc1ccnc(NC(=O)c2cc(-c3cccc([N+](=O)[O-])c3)nc3onc(C)c23)c1 | 0
COc1ccc2c(NN=Cc3cccc(Cl)c3)ccnc2c1 | 2.94
COc1ccc(-c2cccc(NC(=O)c3cccs3)c2)cc1CN1CCCN(C)CC1 | 5.83
CC1CNC(c2cccc(NC(=O)Nc3cccc(C4=NC(C)CN4)c3)c2)=N1 (configuration not stated) | 1.47
Cc1ccc(Oc2cnn(C)c(=O)c2Nc2cccc(C(=O)NCCc3ccccn3)c2)c(C)c1 | 4.88
Cc1nnc2c(NC(=O)/C=C/c3ccc(OC(F)(F)F)cc3)cc3cc(Cl)ccc3n12 | -0
N=C(N)Nc1nc(-c2ccc(NC(=N)N3CCC[C@H]3CN3CCCC3)cc2)cs1 | 2.17
O=c1[nH]ccc2nc(N[C@@H]3CCCNC3)nc(Nc3ccc(S(=O)(=O)N4CCOCC4)cc3)c12 | 0
CC(C)(CN)c1nc(-c2ccc(Cl)c(O)c2)c(-c2ccncc2)[nH]1 | 2.76
COc1ccc(Nc2nccc(-c3cccc(NC(=O)c4cc5cc(F)ccc5[nH]4)c3)n2)cc1 | 6.15
CCn1c(Sc2ccc([N+](=O)[O-])c(C#N)c2)nnc1-c1cccc(Cl)c1 | 3.47
CN1CCN(CC(O)CNC(=O)Nc2ccc(Cl)cc2)CC1 (configuration not stated) | 0
CC(=O)N/N=C/[C@H](CCc1ccccc1)NC(=O)[C@H](CC(C)C)NC(=O)c1ccc(OCCN2CCOCC2)cc1 | 4.55
N#Cc1ccc2c(c1)CCN(CCC1CCC(NC(=O)c3cc4ccc(Cl)cc4[nH]3)CC1)C2 (configuration not stated) | 1.52

SMILES | IFI [%]
CC(C)N(CC(=O)c1ccc(O)c(C(=O)O)c1)Cc1ccccc1 | -0
Cc1c(Oc2ccc(-n3ccnc3)cc2)ncnc1N1CCC2(CC1)CNCc1ccccc12 | 15.6
CC(=O)c1ccc(S(=O)(=O)N2CCC(C(=O)Nc3ccccc3N3CCCC3)CC2)cc1 | 4.04
O=C(N[C@@H](Cc1ccccc1)C(=O)NC1CCCCC1)c1ccc(O)c(-c2ccc(Cl)c(Cl)c2)c1 | 2.96
CN1CCN(CCNc2c3ccccc3nc3c2ccc2ccccc23)CC1 | 6.99
CC(C)CNCc1cccc(-c2ccc(CN(CCCN3CCN(C)CC3)C(=O)/C=C/c3ccccc3)cc2)c1 | 5.15
CCCCN(CCCC)Cc1cc(N(C)c2ccc([N+](=O)[O-])cn2)ccc1O | 3.17
Cc1nc(N2CCC(C)CC2)c2c3c(sc2n1)CCCC3 | 0.68
COc1cc(CNCCCNc2nc3ncccc3[nH]2)c2[nH]cc(Br)c2c1 | 5.26
CC(C)C(=O)NC(c1cccs1)c1cc(Cl)c2cccnc2c1O (configuration not stated) | 3.55
COc1ccc(NC(=O)c2ccc(-c3nc(-c4cccc(C(F)(F)F)c4)cs3)cc2)cc1N1CCN(C)CC1 | 9.01
O=C(Cc1c[nH]cn1)Nc1cccc(-c2ccc(-c3nc4cc(F)ccc4[nH]3)s2)c1 | 3.74
CC1CCCCN1Cc1cccc(-c2c[nH]c3nc(NC4CCCC4)ncc23)c1 (configuration not stated) | 1.72
Cc1[nH]c(C)c(C(F)(F)F)c(=O)c1-c1ccc(Oc2ccc(OC(F)(F)F)cc2)cc1 | 0
Cc1ccc(NC(=O)c2ccc(N3CCC(c4ccccc4C)CC3)nc2)cc1 | 4.35
COc1cc2c(cc1NS(=O)(=O)c1ccc(OCc3ccc(Br)cc3)cc1)CCN(C1CCC1)CC2 | 11.3
C(=N\Nc1nccc2sc(-c3ccccc3)cc12)/c1cccnc1 | 2.92
O=[N+]([O-])c1ccc(CNCCCCCCNCc2ccc([N+](=O)[O-])c3ccccc23)c2ccccc12 | 10.3
Cc1cc(C(=O)Nc2ccc(-c3nc4ccccc4[nH]3)cc2)ccc1[N+](=O)[O-] | 2.11
CC(C)N(CCOc1ccc2c(c1)N(C(=O)Nc1cc(Br)cc(C(F)(F)F)c1)CC2)C(C)C | 3.6
COc1cc2nccc(Nc3ccc4c(cnn4Cc4cccc(F)c4)c3)c2cc1OC | 5.83
CN(C)CCCOc1ccc(CN2CC[C@H](NC(=O)c3ccc(Cl)c(Cl)c3)C2)cc1Cl | 4.17
CC(C)c1ncc(-c2ccncc2)c(C2CCC(CNC(=O)c3ccncc3)CC2)n1 (configuration not stated) | -0

SMILES | IFI [%]
COc1ccc(-c2ccc(NC(=O)c3cccc(C#N)c3)cc2)cc1CN1CCC(O)CC1 | 0.97
CCCCCc1cc(OC(C)=O)c2c(c1)OC(C)(C)C=C2C1=CCN(Cc2ccccc2)CC1 | 5.76
Fc1ccc(C=NNc2nc3ccccc3[nH]2)cc1 | 1.42
COc1cc(N)c(Cl)cc1C(=O)NC1CCC(NCC2CCCCC2)CC1 (configuration not stated) | 0.96
CC(C)CCN(Cc1cncn1Cc1ccccc1F)C(=O)c1cncc(-c2ccccc2)c1 | 3.7
N[C@@H](CCNCc1ccc(-c2cccnc2)cc1)Cc1ccc(F)c(F)c1 | 7.69
O=C(Nc1cccc(CN2CCN(C(=O)c3ccccc3)CC2)c1)c1cccs1 | 5.38
Cc1cccc2nc(-c3cccc(-c4cccc(CN5CCC(CO)CC5)c4)c3)[nH]c12 | 2
Cc1cccc2nc(-c3ccc(-c4ccc(NC(=O)Nc5ccc(F)c(F)c5F)cc4)cc3)[nH]c12 | 2.94
Cc1cc2c(cc1C(F)(F)F)N(C(=O)Nc1ccc(C(=O)NC3CCN(Cc4ccccc4)C3)cc1)CC2 (configuration not stated) | 5.22
Cc1cc2ncn(-c3nccc(NCc4ccc(F)c(C)c4)n3)c2cc1C | 1.56
Cc1nc(NCCc2c[nH]cn2)cc(NCc2ccccc2)n1 | -0
Cc1cccc2nc(-c3cccc(-c4cccc(CNCCc5ccncc5)c4)c3)[nH]c12 | 6.06
CC(C)CCCC(C)(C)NC[C@@H](O)[C@H](Cc1ccccc1)NC(=O)c1cc(NC(C)C)cc(N2CCCCS2(=O)=O)c1F | 5.93
Cc1cccc(-c2ccc(NC(=O)C3CCN(Cc4cccc(O)c4)CC3)cc2)c1 | 15.9
CN(C)c1ccc(CN2CCC(CNC(=O)c3cc(-c4ccccc4F)cs3)C2)cc1 (configuration not stated) | 6.12
COc1ccc2nc(SC(C)C(=O)c3c[nH]c4ccccc34)[nH]c2c1 (configuration not stated) | 6
CC1CCc2sc(-c3nnc(SC(C)C(=O)NC4CC4)o3)cc2C1 (configuration not stated) | 0
Cc1cccc2nc(-c3cccc(-c4cccc(NC(=O)NC5CC5c5ccccc5)c4)c3)[nH]c12 (configuration not stated) | 2.06
CCCCNS(=O)(=O)c1ccc(NC(=O)c2cc([N+](=O)[O-])ccc2Cl)cc1 | 5.17
Cc1cccc2nc(-c3cccc(-c4cccc(NC(=O)c5ccc(=O)[nH]n5)c4)c3)[nH]c12 | 1.79
COCCn1ccc2c3c(N)nc(N)nc3ccc21 | 4.2
CC(C)(C)CNc1noc(-c2sccc2Br)n1 | 7.58
